Measurements taken from paper PMC9911399, “Two distinct binding modes provide the RNA-binding protein RbFox with extraordinary sequence specificity”.
Substitutions are numbered along the chain they refer to; changes in the protein carry UniProt numbers. The list shows a part of the results.

T1: RBFOX1 RRM (Homo sapiens, UniProt Q9NWB1 109-208)
T1 sequence: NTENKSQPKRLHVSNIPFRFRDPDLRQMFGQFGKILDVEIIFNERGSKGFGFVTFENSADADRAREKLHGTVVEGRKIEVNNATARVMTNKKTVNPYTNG

B1: CUCGUAA (DNA:RNA)
RNA: GGGAGACCGGAAUUCAGAUUGUCCCUCGUAAUUAAAUCCCGUCGUAGCCACCA
DNA 1: CAATCTGAATTCCGGTCTCCC
DNA 2: TGGTGGCTACGACGGGATT
B2: GUGUUGG (DNA:RNA)
RNA: B1 RNA with C25G, C27G, G28U, A30G, A31G
DNA 1: CAATCTGAATTCCGGTCTCCC
DNA 2: TGGTGGCTACGACGGGATT
B3: UGCAACG (DNA:RNA)
RNA: B1 RNA with C25U, U26G, G28A, U29A, A30C, A31G
DNA 1: CAATCTGAATTCCGGTCTCCC
DNA 2: TGGTGGCTACGACGGGATT
B4: ACAGGAC (DNA:RNA)
RNA: B1 RNA with C25A, U26C, C27A, U29G, A31C
DNA 1: CAATCTGAATTCCGGTCTCCC
DNA 2: TGGTGGCTACGACGGGATT
B5: UUAACAG (DNA:RNA)
RNA: B1 RNA with C25U, C27A, G28A, U29C, A31G
DNA 1: CAATCTGAATTCCGGTCTCCC
DNA 2: TGGTGGCTACGACGGGATT
B6: UGUAUAC (DNA:RNA)
RNA: B1 RNA with C25U, U26G, C27U, G28A, A31C
DNA 1: CAATCTGAATTCCGGTCTCCC
DNA 2: TGGTGGCTACGACGGGATT
B7: CACUCAU (DNA:RNA)
RNA: B1 RNA with U26A, G28U, U29C, A31U
DNA 1: CAATCTGAATTCCGGTCTCCC
DNA 2: TGGTGGCTACGACGGGATT
B8: AUGGGGA (DNA:RNA)
RNA: B1 RNA with C25A, C27G, U29G, A30G
DNA 1: CAATCTGAATTCCGGTCTCCC
DNA 2: TGGTGGCTACGACGGGATT
B9: CAACAUU (DNA:RNA)
RNA: B1 RNA with U26A, C27A, G28C, U29A, A30U, A31U
DNA 1: CAATCTGAATTCCGGTCTCCC
DNA 2: TGGTGGCTACGACGGGATT
B10: UAUCGAC (DNA:RNA)
RNA: B1 RNA with C25U, U26A, C27U, G28C, U29G, A31C
DNA 1: CAATCTGAATTCCGGTCTCCC
DNA 2: TGGTGGCTACGACGGGATT
B11: GUUAGAU (DNA:RNA)
RNA: B1 RNA with C25G, C27U, G28A, U29G, A31U
DNA 1: CAATCTGAATTCCGGTCTCCC
DNA 2: TGGTGGCTACGACGGGATT
B12: AUUCUUG (DNA:RNA)
RNA: B1 RNA with C25A, C27U, G28C, A30U, A31G
DNA 1: CAATCTGAATTCCGGTCTCCC
DNA 2: TGGTGGCTACGACGGGATT
B13: GAUAGUG (DNA:RNA)
RNA: GGGAGACCGGAAUUCAGAUUGUCCGAUAGUGUUAAAUCCCGUCGUAGCCACCA
DNA 1: CAATCTGAATTCCGGTCTCCC
DNA 2: TGGTGGCTACGACGGGATT
B14: GAAAUAA (DNA:RNA)
RNA: B1 RNA with C25G, U26A, C27A, G28A
DNA 1: CAATCTGAATTCCGGTCTCCC
DNA 2: TGGTGGCTACGACGGGATT
B15: AUUCCCA (DNA:RNA)
RNA: B1 RNA with C25A, C27U, G28C, U29C, A30C
DNA 1: CAATCTGAATTCCGGTCTCCC
DNA 2: TGGTGGCTACGACGGGATT
B16: GGAAUGG (DNA:RNA)
RNA: B13 RNA with A26G, U27A, G29U, U30G
DNA 1: CAATCTGAATTCCGGTCTCCC
DNA 2: TGGTGGCTACGACGGGATT
B17: ACAAUCC (DNA:RNA)
RNA: B1 RNA with C25A, U26C, C27A, G28A, A30C, A31C
DNA 1: CAATCTGAATTCCGGTCTCCC
DNA 2: TGGTGGCTACGACGGGATT
B18: GGGCAGA (DNA:RNA)
RNA: B1 RNA with C25G, U26G, C27G, G28C, U29A, A30G
DNA 1: CAATCTGAATTCCGGTCTCCC
DNA 2: TGGTGGCTACGACGGGATT
B19: CAUUUCC (DNA:RNA)
RNA: B1 RNA with U26A, C27U, G28U, A30C, A31C
DNA 1: CAATCTGAATTCCGGTCTCCC
DNA 2: TGGTGGCTACGACGGGATT
B20: GCCUUAU (DNA:RNA)
RNA: B1 RNA with C25G, U26C, G28U, A31U
DNA 1: CAATCTGAATTCCGGTCTCCC
DNA 2: TGGTGGCTACGACGGGATT
B21: GAUGACU (DNA:RNA)
RNA: B13 RNA with A28G, G29A, U30C, G31U
DNA 1: CAATCTGAATTCCGGTCTCCC
DNA 2: TGGTGGCTACGACGGGATT
B22: GUGUGCU (DNA:RNA)
RNA: B13 RNA with A26U, U27G, A28U, U30C, G31U
DNA 1: CAATCTGAATTCCGGTCTCCC
DNA 2: TGGTGGCTACGACGGGATT
B23: AAUGCUC (DNA:RNA)
RNA: B13 RNA with G25A, A28G, G29C, G31C
DNA 1: CAATCTGAATTCCGGTCTCCC
DNA 2: TGGTGGCTACGACGGGATT
B24: UUUGCGA (DNA:RNA)
RNA: B1 RNA with C25U, C27U, U29C, A30G
DNA 1: CAATCTGAATTCCGGTCTCCC
DNA 2: TGGTGGCTACGACGGGATT
B25: AGACCUC (DNA:RNA)
RNA: B13 RNA with G25A, A26G, U27A, A28C, G29C, G31C
DNA 1: CAATCTGAATTCCGGTCTCCC
DNA 2: TGGTGGCTACGACGGGATT
B26: UCUAAGA (DNA:RNA)
RNA: B13 RNA with G25U, A26C, G29A, U30G, G31A
DNA 1: CAATCTGAATTCCGGTCTCCC
DNA 2: TGGTGGCTACGACGGGATT
B27: ACGCCUG (DNA:RNA)
RNA: B13 RNA with G25A, A26C, U27G, A28C, G29C
DNA 1: CAATCTGAATTCCGGTCTCCC
DNA 2: TGGTGGCTACGACGGGATT
B28: CCCCAGU (DNA:RNA)
RNA: B1 RNA with U26C, G28C, U29A, A30G, A31U
DNA 1: CAATCTGAATTCCGGTCTCCC
DNA 2: TGGTGGCTACGACGGGATT
B29: GGAACCU (DNA:RNA)
RNA: B13 RNA with A26G, U27A, G29C, U30C, G31U
DNA 1: CAATCTGAATTCCGGTCTCCC
DNA 2: TGGTGGCTACGACGGGATT
B30: AACCGGC (DNA:RNA)
RNA: B13 RNA with G25A, U27C, A28C, U30G, G31C
DNA 1: CAATCTGAATTCCGGTCTCCC
DNA 2: TGGTGGCTACGACGGGATT
B31: UCGUCGG (DNA:RNA)
RNA: B13 RNA with G25U, A26C, U27G, A28U, G29C, U30G
DNA 1: CAATCTGAATTCCGGTCTCCC
DNA 2: TGGTGGCTACGACGGGATT

molecular target: T1, RBFOX1 RRM; test: EMSA; HiTS-Eq, 1 nM pool, 10 min; buffer printed only for the single-RNA assays: 10 mM Tris pH 7.5, 150 mM NaCl, 3.4 mM EDTA, 0.001% NP-40, 30 C; details: tags: His6 N-terminal (pET28a); label: 5' 32P
Method in brief: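 Purified RbFox RRM, wild type or mutant, was incubated for 10 min in 50 µL with 1 nM of a 5′-radiolabelled RNA pool carrying 7 randomized nucleotides, whose flanks were annealed to DNA oligonucleotides, over a series of increasing protein concentrations. Unbound RNA was resolved on 8% native PAGE, cut out, reverse-transcribed, barcoded by PCR and sequenced on an Illumina HiSeq 2500. Relative association constants were derived from changes in read counts for each RNA species versus the control reaction and normalised to the cognate motif.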

Point of comparison: B11, binding signal 0.0112 KA relative to UGCAUGU. Against it:
- B1 — lower, 0.0035 KA relative to UGCAUGU
- B2 — higher, 0.0227 KA relative to UGCAUGU
- B3 — higher, 0.0197 KA relative to UGCAUGU
- B4 — lower, 0.00803 KA relative to UGCAUGU
- B5 — lower, 0.00542 KA relative to UGCAUGU
- B6 — lower, 0.00888 KA relative to UGCAUGU
- B7 — lower, 0.00133 KA relative to UGCAUGU
- B8 — lower, 0.00905 KA relative to UGCAUGU
- B9 — lower, 0.00117 KA relative to UGCAUGU
- B10 — lower, 0.00805 KA relative to UGCAUGU
- B12 — lower, 0.0109 KA relative to UGCAUGU
- B13 — higher, 0.0192 KA relative to UGCAUGU
- B14 — lower, 0.00337 KA relative to UGCAUGU
- B15 — lower, 0.000198 KA relative to UGCAUGU
- B16 — higher, 0.0293 KA relative to UGCAUGU
- B17 — lower, 0.00114 KA relative to UGCAUGU
- B18 — higher, 0.015 KA relative to UGCAUGU
- B19 — lower, 0.00121 KA relative to UGCAUGU
- B20 — lower, 0.00811 KA relative to UGCAUGU
- B21 — higher, 0.0125 KA relative to UGCAUGU
- B22 — higher, 0.0177 KA relative to UGCAUGU
- B23 — higher, 0.0123 KA relative to UGCAUGU
- B24 — higher, 0.0165 KA relative to UGCAUGU
- B25 — lower, 0.00036 KA relative to UGCAUGU
- B26 — lower, 0.0083 KA relative to UGCAUGU
- B27 — higher, 0.0206 KA relative to UGCAUGU
- B28 — lower, 0.00445 KA relative to UGCAUGU
- B29 — lower, 0.0104 KA relative to UGCAUGU
- B30 — lower, 0.00337 KA relative to UGCAUGU
- B31 — higher, 0.0171 KA relative to UGCAUGU
